Data as given in PubChem BioAssay AID2147 (National Center for Advancing Translational Sciences (NCATS), 2009).
Screen size: about 230,000 compounds; about 3,600 (1.6%) were called active. This list was built around the results that the source calls inconclusive (neither active nor inactive); the mix of calls is not that of the screen. The call rests on the fitted dose curve; in most records, active means well fitted inhibition curve with a large enough effect (not every such curve was filed as active); inconclusive means small, poorly fitted or top-dose-only effect, or another doubt; inactive means no such curve, though single readings can be large or run the other way. Where the call is inconclusive, the potency comes from a doubtful curve fit.

biological target: Lysine-specific demethylase 4E (Homo sapiens) (UniProt B2RXH2); assay: qHTS Assay for Inhibitors of Human Jumonji Domain Containing 2E (JMJD2E); conditions: JMJD2E catalytic domain, FDH-coupled NADH fluorescence (FDH is formaldehyde dehydrogenase); series mostly up to 57.1 µM; activity change, negative = inhibition: at the top concentration
UniProt B2RXH2, sequence (B2RXH2 whole entry, looked up, the tested form may be a part): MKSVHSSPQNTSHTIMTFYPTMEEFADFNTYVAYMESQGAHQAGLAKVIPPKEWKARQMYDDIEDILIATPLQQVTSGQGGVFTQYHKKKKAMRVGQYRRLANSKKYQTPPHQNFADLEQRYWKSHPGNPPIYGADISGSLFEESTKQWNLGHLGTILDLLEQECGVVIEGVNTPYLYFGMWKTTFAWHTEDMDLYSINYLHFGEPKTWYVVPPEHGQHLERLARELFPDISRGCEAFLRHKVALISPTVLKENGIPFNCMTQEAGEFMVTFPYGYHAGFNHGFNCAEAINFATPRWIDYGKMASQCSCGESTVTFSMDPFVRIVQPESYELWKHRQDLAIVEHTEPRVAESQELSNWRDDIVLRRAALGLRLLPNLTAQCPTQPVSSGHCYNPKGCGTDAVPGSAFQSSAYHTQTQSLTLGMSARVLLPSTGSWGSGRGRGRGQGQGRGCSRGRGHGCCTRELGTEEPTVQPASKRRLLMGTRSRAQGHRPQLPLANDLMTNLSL
Further: nearly all actives have a fitted effect of over 50% in size.
Potency means the concentration at half of the fitted maximal effect; tags describe the fitted curve by direction and shape.
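Wherever activity change, negative = inhibition is given: 0% = wells with enzyme and -100% = buffer wells without enzyme.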

Compound	activity change, negative = inhibition	Potency
O=C(CSc1ncn[nH]1)NC1CC2CCC1C2 (stereo not given)	inactive: -5.66%	–
COc1ccc(OC)c(CN2CCN(c3ccccc3OC)CC2)c1	–	inconclusive: 35.5 µM [inhibitor, single point]
CC1CCc2c(sc(N)c2C(N)=O)C1 (stereo not given)	–	inconclusive: 25.1 µM [inhibitor, single point]
O=C(NCCN1CCOCC1)C1CCN(Cc2ccccc2O)CC1	–	inconclusive: 39.8 µM [inhibitor, single point]
CCC(C)N1C(=O)CN(C2CCCCCC2)C(=O)C1c1ccccc1F (stereo not given)	inactive: -1.15%	–
O=C(CCN1CCN(c2ccccc2F)CC1)c1ccc(Br)cc1	–	active: 25.1 µM
Cc1n[nH]c(C)c1S(=O)(=O)N1CCN(c2ccccn2)CC1	–	inconclusive: 39.8 µM [inhibitor, single point]
CN(C)c1ccc(N=Cc2nc(-c3ccccc3)oc2OC(=O)c2cccc(Cl)c2)cc1	inactive: 3.02%	–
COc1ccc([N+](=O)[O-])cc1NC(=O)CSCc1cc(C)cc(C)c1	inactive: 3.31%	–
COc1ccc(Oc2coc3cc(OC(=O)c4cncc(Br)c4)ccc3c2=O)cc1	–	inconclusive: 28.2 µM [inhibitor, single point]
Cc1ccc2c(c1)c(C)c(C)n2CC(O)Cn1nc(C)c(Br)c1C (stereo not given)	–	inconclusive: 39.8 µM [inhibitor, single point]
Cc1cccc(NC(=O)Cn2c(O)c(N=NC(=O)c3ccccc3O)c3ccccc32)c1	inactive: 4.08%	–
O=C(CN1CCN(CCC(=O)Nc2ccccc2F)CC1)Nc1ccc(Cl)cc1	inactive: 1.41%	–
Nc1c(C(=O)c2ccc(Cl)cc2)oc2ccccc12	inactive: -5.94%	–
Cc1cc(CNC(=O)[C@H](C)[C@@H]2C[C@@]2(C)[C@@H](NC(=O)OCc2ccccc2)c2ccccc2)nn1C	–	inconclusive: 39.8 µM [inhibitor, single point]
Nc1ccc2nc(-c3ccccc3)sc2c1	–	inconclusive: 28.2 µM [inhibitor, partial curve]
CCOC(=O)c1c(-c2ccc(Cl)cc2)csc1NC(=O)CNCc1ccco1	–	active: 25.1 µM
CCN(C(=O)COC(=O)c1ccc(COc2ccc3c(C)cc(=O)oc3c2)cc1)C1CCS(=O)(=O)C1 (stereo not given)	–	inconclusive: 31.6 µM [inhibitor, partial curve]
Cc1csc2nc(=O)c3ccccc3n12	–	inconclusive: 28.2 µM [inhibitor, partial curve]
O=C(NCCNc1ccc([N+](=O)[O-])cc1)c1ccc(Cl)cc1	inactive: 9.1%	–
COc1ccc(-n2ncc3c(=O)n(CC(=O)N4CCCc5ccccc54)cnc32)cc1	–	inconclusive: 35.5 µM [inhibitor, single point]
NS(=O)(=O)c1cccc(NC(=O)CSc2nc3nc(-c4cccs4)cc(C(F)(F)F)c3c(=O)[nH]2)c1	–	inconclusive: 28.2 µM [inhibitor, partial curve]
CCc1ccc(/C=N/n2c(C)cc(C)c(C#N)c2=O)cc1	inactive: -1.64%	–

Compound	activity change, negative = inhibition	Potency
COc1cc(OC)c(S(=O)(=O)NC(C)C)cc1C(=O)O	–	inconclusive: 39.8 µM [inhibitor, single point]
Cc1ccc(-c2cc3ccccc3nc2N2CCCC2)cc1	–	inconclusive: 28.2 µM [inhibitor, partial curve]
Cc1cc2n(c(=O)c1C#N)CCCN2c1ccccc1	–	inconclusive: 35.5 µM [inhibitor, single point]
COc1cc(O)c(C(=O)c2ccccc2)cc1O	–	inconclusive: 4.47 µM [inhibitor, partial curve]
CCN1Cc2c(/C=C/c3ccccc3)nc3ccc(OC)cc3c2N(c2cccc(Cl)c2)C1	–	inconclusive: 25.1 µM [inhibitor, partial curve]
Cc1ccc2c(c1)C1CN(C)CCC1N2C(=O)Nc1ccc(Cl)cc1 (stereo not given)	inactive: 6.17%	–
O=C(CN1C(=O)CCC1=O)Nc1nc(-c2ccccn2)cs1	–	inconclusive: 39.8 µM [inhibitor, single point]
CC(=O)NNC(=S)NC(=O)c1ccccc1	–	inconclusive: 25.1 µM [inhibitor, partial curve]
CN(C)C(=O)c1cn(-c2ccc(Cl)cc2)c(=O)c2ccccc12	–	inconclusive: 31.6 µM [inhibitor, single point]
CC1=NOC(=O)/C1=C\c1ccc(-c2ccc(Br)cc2C(=O)O)o1	–	inconclusive: 28.2 µM [inhibitor, partial curve]
O=C(/C=C/c1ccc2c(c1)OCCCO2)c1ccc2ccccc2c1O	–	inconclusive: 25.1 µM [inhibitor, single point]
CCc1ccc(/C=C/c2c[nH]c3ccccc23)[n+](CC)c1	–	inconclusive: 0.355 µM [inhibitor, partial curve, poor fit]
COc1cc2c(cc1OC)CN(Cc1cc(=O)oc3c(C)c(C)ccc13)CC2	–	inconclusive: 31.6 µM [inhibitor, partial curve]
Cc1cc(N2CCCC2)nc2ccc(NC(=S)NCCCOC(C)C)cc12	–	inconclusive: 39.8 µM [inhibitor, single point]
O=C(NC(=S)N(Cc1ccccc1)c1ccccn1)C1CCCCC1	–	inconclusive: 31.6 µM [inhibitor, partial curve]
O=C(NCc1ccccc1F)C1CCN(C(=O)c2sccc2-n2cccc2)CC1	inactive: 9.11%	–
CC1CCN(CCc2nc3cc(NC(=O)Nc4ccccc4)ccc3n2C)CC1	–	inconclusive: 15.8 µM [inhibitor, partial curve]
O=[N+]([O-])c1cc(Cl)cc(/C=N/NC(=S)Nc2ccc(S(=O)(=O)N3CCOCC3)cc2)c1O	–	active: 25.1 µM
COC(=O)C(C)Sc1n[nH]c(=S)s1 (stereo not given)	–	inconclusive: 39.8 µM [inhibitor, single point]
COc1ccc(-c2ccc(-c3noc(-c4ccccc4OC)n3)c(OC)n2)cc1	–	inconclusive: 20 µM [inhibitor, partial curve]
Cc1cc(OC(=O)c2ccco2)c2c(C)cc(=O)oc2c1	inactive: -1.46%	–
O=C(c1ccc2ccccc2c1)C1CCCN(C(=O)CN2C(=O)CSC2=O)C1 (stereo not given)	–	inconclusive: 25.1 µM [inhibitor, partial curve]
